Source: the supplement of paper PMC9446081
In all, about 39,000 compounds went through this assay and about 220 (0.56%) showed activity. The list shows a part of the results.

system: Escherichia coli K-12 BW25113; assay: relative growth (OD600 normalised to plate interquartile mean) (fraction); higher = less growth inhibition, active = 0.2 or less; conditions: 50 µM; LB; incubation time: overnight (16-24 h)
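Further: static incubation at 37 °C against the wild-type strain, values averaged over two biological replicates.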

Structure (SMILES) | relative growth
Cc1noc(C)c1NC(=O)Nc1ccc2c(c1)C(=O)N([C@@H](C)CO)C[C@@H](C)[C@@H](CN(C)S(=O)(=O)c1cccs1)OCCCC[C@H](C)O2 | inactive: 0.988
C[C@@H]1CCCCO[C@H](CN(C)C(=O)c2ccccc2)[C@H](C)CN([C@@H](C)CO)C(=O)c2cc(NC(=O)Nc3ccc4c(c3)OCO4)ccc2O1 | inactive: 1
C[C@@H]1CCCCO[C@H](CN(C)Cc2ccc(C(=O)O)cc2)[C@H](C)CN([C@H](C)CO)C(=O)c2cc(NC(=O)Nc3ccc4c(c3)OCO4)ccc2O1 | inactive: 1.05
Cc1noc(C)c1NC(=O)Nc1ccc2c(c1)C(=O)N([C@H](C)CO)C[C@H](C)[C@H](CN(C)S(=O)(=O)c1ccccc1)OCCCC[C@@H](C)O2 | inactive: 0.994
COc1ccc(CN(C)C[C@H]2OCCCC[C@@H](C)Oc3ccc(NS(=O)(=O)c4ccc(F)cc4)cc3C(=O)N([C@H](C)CO)C[C@@H]2C)cc1 | inactive: 1.02
CC(C)(Sc1cc(C(C)(C)C)c(O)c(C(C)(C)C)c1)Sc1cc(C(C)(C)C)c(OCC(=O)O)c(C(C)(C)C)c1 | inactive: 0.905
C[C@@H]1CCCCO[C@@H](CN(C)S(=O)(=O)c2ccccc2)[C@H](C)CN([C@@H](C)CO)C(=O)c2cc(NS(=O)(=O)c3ccc(Cl)cc3)ccc2O1 | inactive: 0.966
C[C@@H]1CN([C@@H](C)CO)C(=O)c2cc(NC(=O)CCCN(C)C)ccc2O[C@@H](C)CCCCO[C@@H]1CN(C)S(=O)(=O)c1cn(C)cn1 | inactive: 0.988
CCCC(=O)Nc1ccc2c(c1)OC[C@@H](C)N(C(=O)Cc1ccccn1)C[C@@H](C)[C@H](OC)CN(C)C2=O | inactive: 0.982
C[C@@H](NC(=O)C[C@H]1C=C[C@H](NC(=O)CN2CCOCC2)[C@H](CO)O1)c1ccccc1 | inactive: 1.01
CNC[C@@H]1Oc2ccc(NC(=O)CCN3CCOCC3)cc2CC(=O)N([C@@H](C)CO)C[C@H]1C | inactive: 0.899
COc1ccc([C@@H](NC(=O)C2CCN(CCOc3ccc(Cl)cc3Cl)CC2)c2ccco2)cc1 | inactive: 0.986
CO[C@H]1CN(C)C(=O)c2ccc(NC(=O)c3ccc(F)cc3)cc2OC[C@H](C)N(C(=O)CN(C)C)C[C@@H]1C | inactive: 1
COC(=O)OC[C@H]1O[C@@H](Oc2cc(C)cc(O)c2C(=O)CCc2ccc3occc3c2)[C@H](O)[C@@H](O)[C@@H]1O | inactive: 0.988
COc1ccccc1NC(=O)N(C)C[C@H]1Oc2ncc(C#CC(C)C)cc2C(=O)N([C@H](C)CO)C[C@H]1C | inactive: 1
COc1ccc(NC(=O)Nc2ccc3c(c2)C(=O)N([C@H](C)CO)C[C@@H](C)[C@H](CN(C)S(=O)(=O)c2ccc(C)cc2)OCCCC[C@H](C)O3)cc1 | inactive: 1.05
C[C@H]1CN([C@@H](C)CO)C(=O)Cc2cc(NC(=O)CCCN(C)C)ccc2O[C@H]1CN(C)Cc1ccc(Oc2ccccc2)cc1 | inactive: 0.909
Cc1ccc(S(=O)(=O)N[C@H]2CC[C@@H](CC(=O)NCc3ccc(Cl)c(Cl)c3)O[C@@H]2CO)cc1 | inactive: 0.961
COc1ccc(NC(=O)Nc2ccc3c(c2)C(=O)N([C@H](C)CO)C[C@H](C)[C@@H](CN(C)C(=O)Nc2ccc(C(F)(F)F)cc2)OCCCC[C@@H](C)O3)cc1 | inactive: 1.03
C[C@@H]1CN([C@H](C)CO)C(=O)c2cccc(NS(=O)(=O)c3cccs3)c2O[C@@H]1CN(C)S(=O)(=O)c1cccs1 | inactive: 0.993

Structure (SMILES) | relative growth
C[C@@H]1CN([C@@H](C)CO)C(=O)c2cc(NC(=O)NC3CCCCC3)ccc2O[C@H]1CN(C)S(C)(=O)=O | inactive: 1
C[C@H]1CN([C@@H](C)CO)C(=O)Cc2cc(NC(=O)Nc3cccc4ccccc34)ccc2O[C@@H]1CN(C)Cc1ccc(Oc2ccccc2)cc1 | inactive: 1.02
C[C@@H]1CCCCO[C@@H](CN(C)Cc2ccc(C(F)(F)F)cc2)[C@H](C)CN([C@@H](C)CO)C(=O)c2cc(NC(=O)Nc3cccc4ccccc34)ccc2O1 | inactive: 1.01
C#CCOc1cccc2c1CCNC2=O | inactive: 0.96
Cc1cn(C[C@H](N)C(=O)O)c(=O)n(Cc2ccsc2C(=O)O)c1=O | inactive: 1
Cc1noc(C)c1S(=O)(=O)N(C)C[C@@H]1Oc2c(NC(=O)C3CCCCC3)cccc2C(=O)N([C@H](C)CO)C[C@@H]1C | inactive: 0.964
COCC#Cc1ccc2c(c1)O[C@@H](CN(C)C(=O)Nc1ccccc1F)[C@H](C)CN([C@H](C)CO)S2(=O)=O | inactive: 1
CCNC(=O)C[C@H]1C=C[C@@H](NC(=O)C2CC2)[C@H](CO)O1 | inactive: 0.982
C[C@@H]1CCCCO[C@@H](CN(C)CC2CCCCC2)[C@H](C)CN([C@@H](C)CO)C(=O)c2cc(NC(=O)Cc3ccccc3)ccc2O1 | inactive: 1.01
C[C@H]1CCCCO[C@@H](CN(C)Cc2ccccc2)[C@@H](C)CN([C@@H](C)CO)C(=O)c2cc(NS(=O)(=O)c3cccs3)ccc2O1 | inactive: 0.993
C[C@H](CO)N1C[C@H](C)[C@H](CN(C)C(=O)Nc2ccc(N3CCN(C)CC3)cc2)OCc2cnnn2CCCC1=O | inactive: 0.983
CCOC(=O)[C@H]1CNC(=S)N[C@@]1(C)O | inactive: 0.935
CN1C(=O)c2cc(NC(=O)c3cnccn3)ccc2OC[C@@H]2O[C@H](CC(=O)NCC3CCCCC3)CC[C@H]21 | inactive: 0.993
CC(=O)NCC(=O)N1Cc2nccn2C[C@H](Cn2nc(C)nc2C)C1 | inactive: 0.995
C[C@@H]1CN([C@@H](C)CO)C(=O)c2cc(NC(=O)Cn3cnnn3)ccc2O[C@@H]1CN(C)S(=O)(=O)c1ccc(F)cc1 | inactive: 1.04
I.[KH] | inactive: 1
COc1ccc(NC(=O)Nc2ccc3c(c2)C(=O)N([C@H](C)CO)C[C@H](C)[C@H](CN(C)C(=O)Nc2ccc(OC)cc2)OCCCC[C@@H](C)O3)cc1 | inactive: 1.01
Oc1cc(O)c2c(c1)OC(c1cc(O)c(O)c(O)c1)C(O)C2 (centres undefined) | inactive: 1.03
COc1ccc(S(=O)(=O)Nc2ccc3c(c2)C(=O)N([C@@H](C)CO)C[C@@H](C)[C@H](CN(C)S(=O)(=O)c2ccc(OC)cc2)O3)cc1 | inactive: 1.03
